# According to the supplement of paper PMC8728848:
# Some of the results follow.
# B1: FGFR2-Fc (protein)
# chain: MVNVTDAISSGDDEDDTDGAEDFVSENSNNKRAPYWTNTEKMEKRLHAVPAANTVKFRCPAGGNPMPTMRWLKNGKEFKQEHRIGGYKVRNQHWSLIMESVVPSDKGNYTCVVENEYGSINHTYHLDVVERSPHRPILQAGLPANASTVVGGDVEFVCKVYSDAQPHIQWIKHVEKNGSKYGPDGLPYLKVLKHSGINSSNAEVLALFNVTEADAGEYICKVSNYIGQANQSAWLTVLPKQQAPGREKEITASPDYLETRPLEQKLISEEDLAANDILDYKDDDDKV
# Columns and labels:
# [1] = target: Neu5Gc(a2-8)Neu5Gc(a2-6)Gal(b1-4)GlcNAc; experiment: glycan array binding signal (z-score within array); higher = stronger binding; conditions: glycan notation: IUPAC condensed, linker removed
# Method in brief: (§1)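 Columns mapping to the same glycan were averaged after glycan names were converted to IUPAC-condensed notation. The data come from 3228 arrays in the Consortium for Functional Glycomics database, limited to those with an available protein sequence. Binding is reported as a within-array Z-score averaged across arrays of one protein sequence and across linkers.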
# [2] = target: Neu5Gc(b2-6)Gal(b1-4)GlcNAc; experiment: as above; conditions: glycan notation: IUPAC condensed, linker removed
# Method in brief: as §1
binder,measurement,setting,value
B1,glycan array binding signal (z-score),[1],-0.4
same,glycan array binding signal (z-score),[2],0.378
